In article PMC6872946 (Growth factors (Chur, Switzerland), 2019):

Molecular target: the molecule itself
Test: non-reducing SDS-PAGE and immunoblot

B1: full-length PDGF-C with a C-terminal myc tag (FL-PDGF-C-myc) (natural protein)
chain: not shown
stoichiometry N: 2
